# Whole data set: some 33,000 sequences, median “E-score (-0.5 to 0.5)” near -0.032, cut for the highest 2% near 0.36. This is one part of the list.
# Biological target: T1, Sko1 (UniProt Q02100)
# T1 sequence: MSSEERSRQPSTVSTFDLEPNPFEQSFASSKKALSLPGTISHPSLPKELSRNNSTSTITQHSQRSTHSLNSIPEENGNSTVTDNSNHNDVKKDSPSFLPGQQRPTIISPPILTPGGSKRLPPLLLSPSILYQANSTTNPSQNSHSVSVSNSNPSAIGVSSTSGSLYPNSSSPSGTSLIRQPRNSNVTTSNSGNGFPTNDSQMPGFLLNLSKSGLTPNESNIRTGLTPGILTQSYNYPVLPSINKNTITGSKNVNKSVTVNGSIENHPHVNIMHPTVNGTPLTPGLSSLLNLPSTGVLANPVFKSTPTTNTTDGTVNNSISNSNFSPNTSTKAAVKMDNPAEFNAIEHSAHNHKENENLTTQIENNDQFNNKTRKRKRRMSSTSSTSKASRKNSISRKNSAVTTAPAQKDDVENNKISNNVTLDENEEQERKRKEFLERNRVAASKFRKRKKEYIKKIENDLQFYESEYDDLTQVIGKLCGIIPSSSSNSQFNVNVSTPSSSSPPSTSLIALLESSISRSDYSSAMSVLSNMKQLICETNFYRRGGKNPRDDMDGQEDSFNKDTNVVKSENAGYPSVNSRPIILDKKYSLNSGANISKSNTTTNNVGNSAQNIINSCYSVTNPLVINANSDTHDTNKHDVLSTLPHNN
# Assay: PBM E-score (8-mer binding enrichment) (E-score (-0.5 to 0.5)); higher = stronger / more preferred TF binding; most listed sequences are background and not binding sites
# Conditions: protein concentration: 200 nM; construct: GST-full length
# How it was run: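 Masliner-normalised scans of fluorescent anti-GST signal were the basis for scoring. That signal came from GST-tagged yeast transcription factors applied at about 100-200 nM to double-stranded universal all-10-mer Agilent arrays on fresh or once-stripped slides. Each ungapped eight-base word, pooled with its reverse complement, received an E-score from the Universal PBM Analysis Suite.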
row,Sequence,PBM E-score
1,GCCGCCTA,-0.267
2,AAGCTAAT,0.256
3,CGTGGGGC,0.0267
4,AGTTATCG,0.0984
5,CTGTGTAC,0.00812
6,ACCAACAT,0.0437
7,CCAGCGAA,-0.213
8,CAGATCCA,-0.0128
9,CAGGTGAA,0.0408
10,CCAAAACC,-0.0066
11,GTCAACAA,0.105
12,AGCCAGCC,-0.251
13,ACTGTCTG,-0.235
14,AAATAGTA,0.074
15,AGTGTGCC,-0.215
16,CGGGGGTA,-0.254
17,CCCGAAAA,-0.0615
18,AGGCTAAT,-0.0343
19,CACGCTTA,0.116
20,AATGCTGT,0.0229
21,GCCTGCCA,-0.265
22,CATGTACC,0.0624
23,ACTGTAAA,0.121
24,AAACCAAA,0.103
25,CATAAGAC,0.1

row,Sequence,PBM E-score
1,ATGGGTAG,-0.112
2,TGACCGAA,0.0365
3,ACCCGGAG,-0.156
4,GAGGATTA,-0.0759
5,GCCGACAC,-0.307
6,CTTCGATA,0.118
7,GAACTTGC,-0.0435
8,GGCAGTAA,-0.112
9,GCAGCACA,-0.137
10,ATCGACTC,-0.165
11,AGTCATCA,-0.103
12,AGCCCAAC,-0.106
13,CGTCGCAG,0.149
14,ACGTAACC,0.469
15,GGATGGTA,0.0148
16,GGACATTA,0.111
17,CAATGATG,0.381
18,CCCGGTGA,-0.22
19,ACTGACCG,-0.186
20,CATCTTGA,-0.0578
21,GGAGATAC,-0.0954
22,CTTCCCGA,-0.108
23,CGTGACAA,0.188
24,GGGACGAA,-0.164
25,CAGGGCGA,-0.0698

row,Sequence,PBM E-score
1,ATCTTGAG,0.0289
2,AACGCATT,0.209
3,CCCCTCCC,-0.251
4,AATCAAGA,0.111
5,TAAAAGTA,0.0452
6,ATGGCCCA,0.019
7,GATTTCAA,-0.111
8,TGATAAAA,0.223
9,ATGATTAG,0.15
10,ATAGGACG,0.131
11,GGCTACCA,-0.199
12,AGCCACCT,-0.098
13,CGTTACGA,0.349
14,GCCGTGAC,0.143
15,GCATGCGA,0.0969
16,GGTTCTGA,0.0529
17,CGGAGCAA,-0.229
18,CTCTTACA,-0.0812
19,CGGATCTA,-0.111
20,ATGTAAAC,0.257
21,ACACGCCA,0.166
22,ACTCCCGC,-0.186
23,GTTCGCCA,-0.0644
24,AAAGGACT,-0.062
25,GCCCGCAA,-0.228

row,Sequence,PBM E-score
1,CATCAAAA,0.162
2,AAACTAAG,0.24
3,ACAGATAT,0.096
4,ACGTTTCG,0.347
5,ATCATCAT,0.332
6,GAATAGGA,-0.0437
7,ACTAAAAC,0.1
8,TACGAAAA,0.336
9,AGCTGTCC,-0.254
10,GGGTGTCA,0.0495
11,AGAGTTTG,-0.0379
12,TACGCCTA,0.208
13,CGTCACCA,0.447
14,AAACCTGC,-0.203
15,CCCCGACC,-0.243
16,CGGCAACA,-0.016
17,AATAATGC,0.176
18,TAGAGCGA,-0.114
19,ACTTAAGC,0.032
20,CGGGACGA,-0.144
21,AAAAAGAG,-0.0307
22,AGACCGAG,-0.338
23,GCGAATAA,0.13
24,AAGTCCAG,-0.279
25,CCAGGGCC,-0.394

row,Sequence,PBM E-score
1,GGAATGGA,-0.0692
2,ACGATAAG,-0.0804
3,AATTCTAC,0.151
4,GCTTGCAA,-0.00376
5,TAATCTCA,0.15
6,ACGGGCTA,-0.0788
7,CTTCTGAA,-0.0853
8,CCGCGACG,0.00844
9,ACATGGCG,0.0993
10,AAGTTAAA,0.211
11,ATAGGTAG,0.0253
12,CGGCATTC,-0.119
13,GGACAAAA,-0.0188
14,GGGGTATA,-0.317
15,ATGCACCC,-0.122
16,ACATGGAC,-0.0373
17,AGCCCACA,-0.186
18,CACTCGAC,-0.243
19,CTGGGAAG,-0.183
20,AAAGGGCC,-0.208
21,CTGAGAAC,-0.02
22,CAAATGTC,-0.0195
23,TCATTTCA,0.181
24,ATTGGCGC,0.0319
25,AACCGCAA,0.0628

row,Sequence,PBM E-score
1,CCAAAGCC,-0.186
2,ACACAGTC,-0.193
3,CCGTCTAG,-0.23
4,GTCTCTAA,0.106
5,ACTACATA,0.198
6,CTGATGCC,-0.122
7,CTTTCTCC,-0.317
8,CTAATCAC,0.196
9,AAGGACTG,-0.237
10,GCCCTAAC,-0.0018
11,GTTCCCGA,-0.0955
12,CTCATGGC,-0.0953
13,TAGCTATA,0.00695
14,ACGTGCGA,0.301
15,CTCACCAA,0.00581
16,ATGGAATC,0.232
17,CAGCACCC,-0.188
18,GCTGGCAC,-0.114
19,ATCAAGAG,0.0204
20,ATTTGTCC,0.206
21,ATTGGACC,-0.27
22,ATGAATGG,-0.0491
23,AGGCTCAA,-0.14
24,CGCAATTC,0.145
25,ACGCGTAA,0.382

row,Sequence,PBM E-score
1,CAAAGCGC,-0.0192
2,ACCCGGAT,-0.263
3,CGGACCAG,-0.133
4,ACACGGCG,-0.0435
5,ACCACAGG,-0.272
6,ATCCCGCC,-0.341
7,ATCTCACG,0.126
8,ATCCTTAG,-0.146
9,GGCTATAA,-0.0469
10,AGATAGAT,-0.095
11,GCAACAGA,-0.029
12,AACCTCAT,0.167
13,GTATACGA,0.194
14,AATGAACA,0.14
15,TTAAACAA,0.00421
16,CATCCGGG,-0.148
17,CAAAAGGC,-0.222
18,GGCACGCC,-0.268
19,CATTTTCC,0.122
20,CATTGATC,0.0657
21,ATGTATAC,0.247
22,CGGGCCTA,-0.287

# — the supplement of paper PMC3334620
